# Measured values published in paper PMC6212790.
# The other results are listed elsewhere or left out. At the low end of the ranking the order means little.
# Target: T1, GST-Rok-C97-191 (UniProt O34857)
# T1 sequence: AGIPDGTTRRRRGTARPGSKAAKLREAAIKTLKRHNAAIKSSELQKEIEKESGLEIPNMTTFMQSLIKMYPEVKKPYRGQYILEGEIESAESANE
# Assay: protein binding microarray;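 also: rank score from −0.5 (least bound) to 0.5 (best bound)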
# Conditions: Rok is a gene silencer of Bacillus subtilis; high values mean tight binding; most listed sequences are background and not binding sites; double strand, one strand shown
row,Sequence,binding signal [E-score]
1,AGACGTGG,-0.228
2,ACTGCGGA,-0.107
3,GCCTTAGC,-0.184
4,CCTTGAGA,-0.0382
5,GCGCCAAA,-0.125
6,GCTACAAA,0.204
7,CGAGCAAG,-0.0658
8,TAGGTACA,0.0903
9,ACTCAGAG,-0.044
10,ACCCTCGT,-0.204
11,GGCTGCAA,-0.284
12,CGACTCCG,-0.21
13,TCCGGCGA,-0.0879
14,CTGGGCAA,-0.156
15,CGAAAGTC,-0.117
16,CCTAGGCA,-0.198
17,AACAGTGG,0.102
18,CCAGCTAG,0.0626
19,CGAGGGTA,-0.163
20,TAGTTGGA,0.0403
21,AGGGACCC,-0.173
22,CGACAGCG,-0.188
23,CTGAAGGA,-0.156
24,AGTGTAGC,0.0633
25,GACGCGAC,-0.178

row,Sequence,binding signal [E-score]
1,GTATAAAC,0.137
2,ACTCCGAG,-0.0711
3,CAGACTTC,0.0764
4,AATTGGCG,0.135
5,CGTACATA,0.168
6,ATTGCTGC,-0.0275
7,CATAAGCA,0.027
8,ACATAATG,0.181
9,ACGACACT,0.0814
10,CTCCAGAA,-0.0556
11,TCGTCCAA,-0.0486
12,CAACCGTC,-0.011
13,CAAATTAC,0.33
14,AGTGTCCG,-0.0702
15,ACTACGCC,0.000472
16,AGTGTTGC,0.13
17,GCGGCTTA,-0.211
18,CCCATCAG,-0.143
19,CTACCGTA,0.26
20,CCGCTGCC,-0.289
21,ATACCGTC,0.0617
22,AGAGAACG,0.0501
23,AGTTGAGG,0.0783
24,AACCCTCT,-0.204
25,ATCGCTGA,0.072

row,Sequence,binding signal [E-score]
1,CCAAGAGC,-0.226
2,AACGAGAG,-0.0985
3,ACCAATGC,-0.0387
4,GAGTGCTA,0.173
5,AAGCAACC,-0.189
6,TCCTTTCA,-0.0519
7,GCGACGCC,-0.28
8,ACTGTCAG,-0.0551
9,AATCGCAT,-0.00152
10,GAACGCAA,-0.0522
11,CCAATGTA,0.181
12,CGTTCCAC,-0.113
13,GAGAGCGC,-0.329
14,CGGAATGC,-0.0907
15,AATGACGA,-0.0116
16,AACCTCCT,-0.0841
17,CCCCCAAA,-0.34
18,AATCTTCT,0.132
19,GAGTAACC,-0.0845
20,GTCAGTGA,-0.128
21,GGTAACAC,0.0899
22,CTTTGGTC,-0.0609
23,CCGCCACA,-0.208
24,TCAGCTCA,-0.0912
25,CGACAAGC,-0.172

row,Sequence,binding signal [E-score]
1,ATTGTATA,0.317
2,GTTAGATA,0.321
3,AGACGTGA,-0.0265
4,ACGGCGCC,-0.222
5,CCTAATAC,0.14
6,TTCTTAAA,0.0754
7,ATCTGGCC,-0.14
8,ACCACCCT,-0.0961
9,AGCGGTTC,-0.199
10,AGCCAACG,-0.273
11,ATTCAAGC,-0.00937
12,ACACCCCT,-0.293
13,TTAGCGAA,0.0761
14,ATATAAGG,0.0383
15,GAAGCGGC,-0.333
16,AATGAAAT,0.184
17,GTCGGCAC,-0.245
18,GGGTTGAC,-0.2
19,TCATGGAA,-0.0558
20,ACAACCAT,-0.0136
21,ATGCCCTA,-0.00598
22,TGTTTTAA,0.115
23,GAGACAGC,-0.226
24,CCCTTAAG,-0.126
25,ATGAAGCA,-0.0894

row,Sequence,binding signal [E-score]
1,CCACATTC,-0.116
2,AGAAGATA,0.193
3,GCCACCCC,-0.177
4,ACAACGGA,0.0579
5,GCCGTCGA,-0.143
6,GGGGGACC,-0.34
7,AGCCCTTA,-0.145
8,CCCATAGG,-0.303
9,TAATTCTA,0.331
10,GATGGTCC,-0.146
11,AACAGAGT,0.00928
12,CCATCGCG,-0.0149
13,TGCCAGAA,-0.053
14,AGCTTCTA,0.2
15,GTCCTTAA,0.0686
16,CGAAAACC,-0.125
17,ACAACAGC,-0.154
18,AAATTGAG,0.0287
19,GATTAAAA,0.109
20,ACTGGGGG,-0.151
21,AGTGCATG,-0.193
22,CTGACATC,-0.162
23,ACCAAACG,-0.0311
24,CTGCCAAG,-0.104
25,CTAAAATA,0.295

row,Sequence,binding signal [E-score]
1,GGACGAAC,-0.138
2,ATACGGAG,0.165
3,ATCTATAC,0.26
4,GACCACCC,-0.321
5,GCCTTGCC,-0.299
6,ACCATAAA,0.249
7,CTCGCGCC,-0.231
8,ACGATGAG,-0.054
9,CACTACTG,0.0489
10,CAGACGGC,0.0544
11,GAGAAAGC,0.000166
12,ATTAAATG,0.093
13,TGCACACA,0.00321
14,CCGAGGCG,-0.183
15,CACTCGGG,-0.143
16,AATCAGAA,0.0565
17,AAACTGGG,-0.197
18,CCATCGGG,-0.172
19,GCAGCCAC,-0.313
20,AATTAGGA,0.185
21,CAGACACC,0.0685
22,GCCAAAGC,-0.308
23,AGACTGGA,-0.197
24,ATGTCGGG,-0.0643
25,CAACTACA,0.234

row,Sequence,binding signal [E-score]
1,GCTAATCC,-0.0789
2,CCGCACCA,-0.123
3,ACAACTCC,-0.0564
4,GGAGCAAC,-0.102
5,TACGGAGA,0.127
6,AGAGCATA,-0.189
7,CATTCAGC,-0.21
8,ATGCGGCA,-0.0172
9,CTTACAGA,0.0483
10,CTGGGGAA,-0.122
11,ATTCCTCA,0.0114
12,AAGTGTTC,-0.00454
13,ATATAGAT,0.399
14,CAGCATGC,-0.087
15,CATAGTGA,0.0448
16,CCCCCCTA,-0.227
17,ACTTACTG,0.244
18,GCGACATA,0.0144
19,GCAGAGCA,-0.181
20,AGAATTGA,0.0635
21,CTGCATTA,0.17
22,AGGAACTA,0.115
23,ATGCGCAT,0.0578
24,TAGCAAGA,0.155
25,CCGCCCCA,-0.269

row,Sequence,binding signal [E-score]
1,AAGGTCCT,-0.181
2,GTCTATTA,0.0713
3,ACGACGCT,-0.276
4,ATATTTCG,0.238
5,CTAGCAAA,0.181
6,GGTGCATA,0.236
7,AACACGGC,-0.0807
8,CGTCATTA,-0.0417
9,CGGGCCTA,-0.196
10,ATCGTAAA,0.143
11,AAAGATAC,0.0421
12,GTACGCAC,-0.0335
13,ACTATTAG,0.263
14,GCAAGAAC,0.0107
15,ATGAAAAC,0.021
16,AGACTGCC,-0.228
17,AGTATACA,0.178
18,CGTTCAAA,-0.0762
19,ACTAGCAT,0.142
20,CGCCTTGA,-0.172
21,AGATAGCT,0.261
22,AAACTAAA,0.296
23,CGAGCTAA,0.00487
24,CGACGCGC,-0.24
25,AAGATTGC,-0.0164

row,Sequence,binding signal [E-score]
1,GCCCTGGA,-0.158
2,GGAGGTAA,0.021
3,ATCACAAT,0.199
4,ACCTAGAT,0.144
5,GGACAGCA,0.00345
6,GCCAACCA,-0.241
7,ATCTACAT,0.342
8,GCTCACAA,-0.0941
9,ATCAGCGC,-0.0644
10,ACGTTTTG,-0.0255
11,CATTGTTC,-0.0411
12,AAGGAAAT,-0.000157
13,GCACACCA,-0.0574
14,GCAAACAA,-0.173
15,AGGCGTCG,-0.126
16,ACACAGAC,-0.211
17,TGGTCACA,-0.22
18,ATGCCATA,0.081
19,TCAGGACA,-0.209
